{"source": "PubChem BioAssay AID1476", "about": "(National Center for Advancing Translational Sciences (NCATS), 2009)", "note": "The whole screen tested about 200,000 compounds, of which about 4,500 (2.2%) were called active. Inconclusive results, whose numbers are uncertain, are shown with a selection of clear calls. The call rests on the fitted dose curve; in most records, active means well fitted inhibition curve with a large enough effect; inconclusive means small, poorly fitted or top-dose-only effect, or effect the other way; inactive means flat fitted curve, though single readings scatter. Where the call is inconclusive, the potency comes from a doubtful curve fit. Potency means the concentration at half of the fitted maximal effect; tags describe the fitted curve by direction and shape."}
{"target": "Cruzipain (Trypanosoma cruzi) (UniProt P25779)", "sequence (P25779 whole entry, looked up)": "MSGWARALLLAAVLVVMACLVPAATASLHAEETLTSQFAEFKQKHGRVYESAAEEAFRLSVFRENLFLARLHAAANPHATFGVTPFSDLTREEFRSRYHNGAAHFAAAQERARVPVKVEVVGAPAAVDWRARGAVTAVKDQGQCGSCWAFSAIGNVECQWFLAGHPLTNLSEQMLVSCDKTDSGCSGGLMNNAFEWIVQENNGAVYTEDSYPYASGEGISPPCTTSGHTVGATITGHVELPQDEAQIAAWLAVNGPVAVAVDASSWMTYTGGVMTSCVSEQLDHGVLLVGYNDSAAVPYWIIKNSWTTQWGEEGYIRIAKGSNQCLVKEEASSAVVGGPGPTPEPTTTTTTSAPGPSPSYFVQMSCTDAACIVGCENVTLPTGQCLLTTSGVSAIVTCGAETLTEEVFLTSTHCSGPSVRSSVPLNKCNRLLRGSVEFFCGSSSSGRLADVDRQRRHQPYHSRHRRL", "test": "qHTS Assay for Promiscuous and Specific Inhibitors of Cruzain (without detergent); further: nearly all actives have a fitted effect of over 40% in size;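 on max response, negative = inhibition: plate controls were enzyme without inhibitor for no effect and buffer without enzyme for full effect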", "conditions": "purified cruzain, Z-FR-AMC fluorescence, no detergent", "procedure,_shortened": "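Purified cruzain at 1.5 nM, pre-incubated 15 min with compound at room temperature in 100 mM sodium acetate pH 5.5, 5 mM DTT, 0.00005% Triton X-100. Reaction started with 2 uM Z-FR-AMC; AMC fluorescence increase over 60 s gives rate.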"}
{"smiles": "CCCNC(=O)CSc1c2c(nc3ccc(Cl)cc13)CCCC2", "max response, negative = inhibition": "inactive: -22%"}
{"smiles": "CCOC(=O)c1cc2c(=O)n3ccccc3nc2n(Cc2ccco2)c1=NC(=O)c1cccc(C)c1", "max response, negative = inhibition": "inactive: -0.636%"}
{"smiles": "Cc1cccc(N2CCN(C(=O)c3cnn(-c4ccc(F)cc4F)c3C3CCN(C(=O)OC(C)(C)C)CC3)CC2)c1C", "Potency": "inconclusive: 3.98 µM [activator, single point]"}
{"smiles": "O=C(Nc1nccs1)c1cc2c(s1)-c1ccccc1OC2", "Potency": "inconclusive: 39.8 µM [inhibitor, single point]"}
{"smiles": "O=C(Nc1cccc(CCc2ccccn2)c1)c1cc(F)c(F)cc1Cl", "max response, negative = inhibition": "inactive: -7.77%"}
{"smiles": "Cc1ccc(NC(=O)c2c3c(nc4ccccc24)C(=O)N(C2CCCCC2)C3)cc1F", "max response, negative = inhibition": "inactive: -8.54%"}
{"smiles": "CCOC(=O)Cc1c(C)nc2cc(-c3ccc(C(C)(C)C)cc3)nn2c1C", "Potency": "inconclusive: 25.1 µM [activator, single point]"}
{"smiles": "Cc1cc(SCc2cc(=O)[nH]c3ccccc23)nc2ccccc12", "Potency": "inconclusive: 31.6 µM [inhibitor, single point]"}
{"smiles": "COC(=O)c1ccc(C(=O)OC)c(NC(=O)c2c(-c3ccccc3)noc2C)c1", "max response, negative = inhibition": "inactive: 3.18%"}
{"smiles": "Cc1ccc2nc3c(cc(C(=O)NCC4CCCO4)n3C)c(=O)n2c1", "note": "(stereo not drawn)", "Potency": "inconclusive: 39.8 µM [activator, single point]"}
{"smiles": "Cc1ccc(C(=O)NCC(c2cccs2)S(=O)(=O)c2ccccc2)cc1C", "note": "(stereo not drawn)", "max response, negative = inhibition": "inactive: -1.34%"}
{"smiles": "O=C(COC(=O)c1cccnc1Nc1cccc(C(F)(F)F)c1)NCCN1C(=O)CSC1=O", "Potency": "inconclusive: 39.8 µM [activator, single point]"}
{"smiles": "Fc1ccc(CSc2nncn3c2cc2occc23)c(Cl)c1", "max response, negative = inhibition": "inactive: -5.38%"}
{"smiles": "Cc1nc2c(-c3ccc(F)cc3)c(C)nn2c(N2CCOCC2)c1C", "Potency": "inconclusive: 25.1 µM [activator, partial curve]"}
{"smiles": "CCc1nc2ccc(C(=O)N3CCN(c4cc(C)ccc4C)CC3)cc2nc1CC", "Potency": "inconclusive: 25.1 µM [activator, single point]"}
{"smiles": "N#Cc1c(N)n(CCOC(=O)c2cccc([N+](=O)[O-])c2)c2nc3ccccc3nc12", "Potency": "inconclusive: 39.8 µM [activator, single point]"}
{"smiles": "CC1=C(C(=O)NCc2ccccc2)C(c2cc(Br)cc(Br)c2OC(C)C)NC(=O)N1", "note": "(stereo not drawn)", "Potency": "inconclusive: 39.8 µM [activator, single point]"}
{"smiles": "COc1ccc(C2/C=C\\C(c3ccc(OC)cc3)N(Cc3ccc(F)cc3)C(=O)C(=O)N2Cc2ccc(F)cc2)cc1", "note": "(stereo not drawn)", "Potency": "inconclusive: 25.1 µM [inhibitor, single point]"}
{"smiles": "CCN(CCO)c1nc(SC)nc2c1sc1nc(-c3ccco3)c3c(c12)CCC3", "Potency": "active: 6.31 µM"}
{"smiles": "CCn1cc(C(=O)Nc2ccc3c(c2)OCCO3)c2cc(OC)c(OC)cc2c1=O", "Potency": "inconclusive: 39.8 µM [activator, single point]"}
{"smiles": "O=C(CSc1nnc(-c2c[nH]c3ccccc23)o1)N(Cc1ccccc1)c1ccc(F)cc1", "Potency": "active: 12.6 µM"}
{"smiles": "CCOC(=O)c1c(NC(=O)C2CCCO2)sc2c1CCC2", "note": "(stereo not drawn)", "Potency": "inconclusive: 39.8 µM [activator, single point]"}
{"smiles": "CCN1C(=O)[C@H]2[C@H]3[C@H](O)[C@H](O)C/C(=N\\OC[C@@H](C)[C@H](OCc4ccccc4)C(C)C)[C@@H]3CC[C@H]2C1=O", "Potency": "inconclusive: 25.1 µM [activator, single point]"}
{"smiles": "COCC(=O)Nc1nc2n(n1)C(c1ccccc1)CC(c1ccc(OC)cc1)N2", "note": "(stereo not drawn)", "max response, negative = inhibition": "inactive: 10.1%"}
{"smiles": "COc1ccc(NC(=O)Nc2cc3oc4ccccc4c3cc2OC)cc1", "Potency": "inconclusive: 39.8 µM [inhibitor, single point]"}
{"smiles": "COc1ccc(OC)c(-c2csc(NC(=O)CSc3ccc([N+](=O)[O-])cc3)n2)c1", "Potency": "inconclusive: 39.8 µM [inhibitor, single point]"}
{"smiles": "CCOC(=O)c1cc(-c2ccccc2)nc2c1c(C)nn2-c1ccccn1", "Potency": "inconclusive: 39.8 µM [activator, single point]"}
{"smiles": "COc1ccc(/C=N\\NS(=O)(=O)c2ccc(Br)cc2)cc1COc1ccccc1[N+](=O)[O-]", "Potency": "inconclusive: 10 µM [inhibitor, partial curve, poor fit]"}
{"smiles": "C=CCN(CC=C)S(=O)(=O)c1ccc(NC(=S)NC(=O)/C=C/c2ccc(C)cc2)cc1", "Potency": "active: 25.1 µM"}
{"smiles": "CCOC(=O)c1sc(NC(=O)c2cc3n(n2)C(C(F)(F)F)CC(c2ccccc2)N3)c(C(=O)OCC)c1C", "note": "(stereo not drawn)", "Potency": "inconclusive: 2.51 µM [inhibitor, full curve, poor fit]"}
{"smiles": "COCCNC(=O)Nc1ccc2nc(-c3cccs3)c(-c3cccs3)nc2c1", "Potency": "inconclusive: 39.8 µM [activator, single point]"}
{"smiles": "O=C1NC(=O)c2cc(Nc3ccccc3)c(Nc3ccccc3)cc21", "Potency": "active: 20 µM"}
{"smiles": "CCn1ccc2cc(S(=O)(=O)N3CCCN(C(=O)Nc4cccc(SC)c4)CC3)ccc21", "Potency": "inconclusive: 39.8 µM [inhibitor, single point]"}
{"smiles": "COc1ccc(S(=O)(=O)Cc2ccc(C(=O)N3CCN(c4cccc(C)c4C)CC3)o2)cc1", "Potency": "inconclusive: 25.1 µM [activator, single point]"}
{"smiles": "Cc1ccc(-c2csc(NC(=O)COc3ccc(N(C)S(=O)(=O)c4ccc(C)cc4)cc3)n2)cc1", "Potency": "active: 6.31 µM"}
{"smiles": "Cc1cc(OC(C)C(=O)N2CCC(c3nc4ccccc4o3)CC2)ccc1Cl", "note": "(stereo not drawn)", "Potency": "inconclusive: 31.6 µM [activator, single point]"}
{"smiles": "C[C@H](CO)NC(=O)[C@@H]1C[C@H]1[C@@H](NP(=O)(c1ccccc1)c1ccccc1)c1ccccc1", "Potency": "inconclusive: 39.8 µM [activator, single point]"}
{"smiles": "CCCCc1cc(=O)oc2c(CN3CCCC3)c(O)c(Cl)cc12", "Potency": "inconclusive: 3.16 µM [activator, single point]"}
{"smiles": "Clc1cccc(-c2nc3ccccn3c2Nc2ccc3c(c2)OCCO3)c1", "Potency": "inconclusive: 31.6 µM [inhibitor, single point]"}
{"smiles": "COC(=O)c1ccc(Nc2nc(-c3ccccc3Cl)nc3ccccc23)cc1", "max response, negative = inhibition": "inactive: 5.26%"}
{"smiles": "COc1ccc(-n2c(=O)cc(N3CCN(c4ccccc4F)CC3)[nH]c2=O)cc1", "max response, negative = inhibition": "inactive: 2.5%"}
{"smiles": "Cc1c(Cl)cnc(NC(=O)COC(=O)c2cccc(S(=O)(=O)N3CCc4ccccc4C3)c2)c1Cl", "Potency": "inconclusive: 31.6 µM [inhibitor, single point]"}
{"smiles": "Cc1cc2nn(-c3ccc(F)cc3)nc2cc1NC(=O)c1cccc([N+](=O)[O-])c1C", "max response, negative = inhibition": "inactive: 0.5%"}
{"smiles": "COc1cccc(OC(=O)CSc2nnc(-c3cccs3)o2)c1", "max response, negative = inhibition": "inactive: -4.76%"}
{"smiles": "O=C(C1CCC(Cn2c(=O)c3sccc3n(Cc3cccc(F)c3)c2=O)CC1)N1CCOCC1", "note": "(stereo not drawn)", "Potency": "inconclusive: 25.1 µM [activator, single point]"}
{"smiles": "Cc1nn(C)c(C)c1-c1cccc2c1CCC(N(C)C)C2", "note": "(stereo not drawn)", "max response, negative = inhibition": "inactive: -17.6%"}
{"smiles": "COc1ccc2nc(NC(=O)C3CCN(S(=O)(=O)c4cccc5nsnc45)CC3)sc2c1", "Potency": "inconclusive: 39.8 µM [inhibitor, single point]"}
{"smiles": "Cc1c(Cl)cccc1NC(=S)/C(=C(\\[O-])c1ccc(Cl)s1)[n+]1ccccc1", "Potency": "inconclusive: 12.6 µM [inhibitor, single point]"}
{"smiles": "CCCOc1ccc(C2C(C(=O)OC)=C(C)N=C3SCCC(=O)N32)cc1OCC", "note": "(stereo not drawn)", "Potency": "inconclusive: 31.6 µM [activator, single point]"}
{"smiles": "CC(C)CNc1ncnc2onc(-c3ccc(Cl)cc3)c12", "max response, negative = inhibition": "inactive: -4.64%"}
{"smiles": "Cc1cccc(CSc2ccc3nnc(-c4cccs4)n3n2)c1", "Potency": "active: 31.6 µM"}
{"smiles": "COc1cccc(-c2csc(N3CCN(C(=S)Nc4ccccc4)CC3)n2)c1", "Potency": "inconclusive: 39.8 µM [inhibitor, single point]"}
{"smiles": "CCSc1nnc(NC(=O)[C@@H](NC(=O)c2ccc(C(C)(C)C)cc2)C(C)C)s1", "Potency": "inconclusive: 25.1 µM [inhibitor, partial curve]"}
{"smiles": "CC(C)(C)c1ccc(-c2nnc(SC3CCOC3=O)n2Cc2ccccc2)cc1", "note": "(stereo not drawn)", "Potency": "inconclusive: 39.8 µM [activator, single point]"}
{"smiles": "CCc1ccc(CNC(=O)c2ccc(-c3nc(CSc4ccc(C)cc4)c(C)o3)cc2)cc1", "Potency": "inconclusive: 39.8 µM [inhibitor, single point]"}
{"smiles": "COC(=O)c1c(NC(=O)C2c3ccccc3Oc3ccccc32)sc2c1CCC(C(C)(C)C)C2", "note": "(stereo not drawn)", "Potency": "inconclusive: 3.16 µM [inhibitor, full curve, poor fit]"}
{"smiles": "C(=N/N1CCN(c2ccccc2)CC1)/c1cccs1", "Potency": "inconclusive: 39.8 µM [inhibitor, single point]"}
{"smiles": "Cc1cc2nc(-c3ccc(NC(=O)c4cccnc4)cc3)oc2cc1C", "Potency": "inconclusive: 7.94 µM [activator, full curve]"}
{"smiles": "COc1ccc(N=C2SC(CC(=O)Nc3ccccc3)C(=O)N2CCc2ccccn2)cc1", "note": "(stereo not drawn)", "Potency": "inconclusive: 39.8 µM [activator, single point]"}
{"smiles": "COC(=O)CCN(c1ccccc1)C(CNS(=O)(=O)c1ccccc1)c1ccccc1", "note": "(stereo not drawn)", "Potency": "inconclusive: 0.1 µM [activator, partial curve, poor fit]"}
{"smiles": "COc1ccc(Nc2oc(/C=C/c3ccccc3OC)nc2C#N)cc1", "Potency": "inconclusive: 31.6 µM [inhibitor, single point]"}
{"smiles": "Cc1ccc(C)c(NC(=O)CSc2ccc3nc(-c4ccccc4)cn3n2)c1", "max response, negative = inhibition": "inactive: -7.93%"}
{"smiles": "O=C(COc1ccc(Cl)cc1)N(Cc1ccccc1)c1nc(-c2ccccc2)cs1", "Potency": "active: 10 µM"}
